Data reported in the supplement of paper PMC11417369.
± gives the standard deviation of the averaged measurements. Some of the results follow.

These sequences were tested on PfAP2-EXP AP2 domain (GST-tagged) (assay: gcPBM binding intensity (ln(normalized median fluorescence intensity)); higher = stronger DNA binding).
How it was run: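 Using an Agilent 4 × 180k array, primer-extended double-stranded 36-bp intergenic genomic probes and negative controls were exposed for 1 h to GST-fused P. falciparum DNA-binding domains expressed in E. coli. Binding was carried out in 1× PBS with 1% milk, 0.2 mg/ml BSA, 0.5% salmon testes DNA and 0.03% Triton X-100, and protein was detected with Alexa488 anti-GST antibody and a 488 nm scan. Binding intensity is the highest Masliner-normalised natural-log median intensity across replicate spots of either probe orientation.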

Sequence	gcPBM binding intensity (ln)
AAAAAAAAATTAATATATAAAAGGATATATATATAT [GTGCAC_negctrl_site449]	9.86 ± 0.3
AAAATATAATATAATGCACACATAAAACAAAAAAAA [CACACA_site8989]	8.78 ± 0.28
GAATAATATATATATTGTACTTTTTATTTATATTAT [XGTACX_site3180]	8.62 ± 0.42
CTTTTTTTTTTTTTTACACACCCAAATCACATACAT [CACACA_site4051]	8.71 ± 0.39
ATATATATATTTATATGTACGAAATATAAAAAAAAA [XGTACX_site5054]	8.815 ± 0.007
CTTATCAAAAAAAAAGCATGCCACAGGCAAAAGGTA [TGCATGCA_site574]	8.88 ± 0.44
ACATATAAATATATTACACACACACTAAAAAAATAA [CACACA_site6209]	8.82 ± 0.42
CACCTTATAAATACTGCACACATAAAATATATATTA [CACACA_site8908]	8.7 ± 0.26
ATATATATATATATATGTACATATATACATATACAT [XGTACX_site2350]	9.99 ± 0.43
ATATAAAAATGTGTATGTACACACTTTATTTTTAAT [XGTACX_site5272]	8.31 ± 0.34
TTAAAAAACCTTAGATGTACAGTTATATATAAAATA [XGTACX_site6688]	8.54 ± 0.35
TTTTTCTATAAAAAATGTACATATTTTATGAAGGAA [XGTACX_site821]	8.5 ± 0.35
AAATTACAAATACAAACACACAAATGTTTTTCATTC [CACACA_site3552]	8.13 ± 0.38
ATCCTTTATTTTTTTTGTACATAAAAATAACTCGAG [XGTACX_site3885]	8.97 ± 0.42
TGGAATAATACGCGTACACACATATATATATTAATA [CACACA_site131]	8.82 ± 0.47
TGAACACACGAGCACACACACACATCTATATTTATA [CACACA_site6607]	8.57 ± 0.38
AGGTATCAAAAATATGCATGCAATATTTTATGTAAT [TGCATGCA_site1055]	10.1 ± 0.26
AAACATAAGAGACACACACACATATATAAATAAATA [CACACA_site7674]	8.81 ± 0.42
AAAAATAAAATAAAGAAGGAAAATAAAAAAATAAGG [CACACA_negctrl_site1811]	8.79 ± 0.44
AGGAGGTCAGTTCACAGTACCCAGGAAATCTACGGA [XGTACX_site2552]	8.53 ± 0.45
AATTTCATAAATATAACTGAGAATAAATAAACAAAG [GTGCAC_negctrl_site146]	8.71 ± 0.47
CCTGTAAATAAATATAAATACATATTTCTAATATAT [GTGCAC_negctrl_site21]	8.25 ± 0.54

Sequence	gcPBM binding intensity (ln)
TTTCAAAAAAATAATGTGCACATTAGAAAATAAATA [GTGCAC_site9416]	8.9 ± 0.3
ACCTCATAATATTTAACACACAAAATTAAATGTATG [CACACA_site6898]	8.6 ± 0.33
GAAGTATTTATTTATGCATGCAAATATACAAAAAAA [TGCATGCA_site975]	10 ± 0.14
TTTTATACATATTTTACACACTAAAATATACATATA [CACACA_site324]	8.45 ± 0.28
ACATATATTTAAAAATGTACTTACATATATTTTTTA [XGTACX_site6050]	8.22 ± 0.29
TAAATATTTTTAGATGCATGCAATAATTACCCAAAG [TGCATGCA_site636]	9.87 ± 0.18
TTATTATTATTACTAGTGCATTAATTATATATGTAA	8.72 ± 0.13
TTTTTTTTTTCTGAAAGTACTAATTTCCTGGAGGAA [XGTACX_site759]	8.23 ± 0.47
ATAAAATAAATATTTTGTTATTTATTTAATCTAATA [XGTACX_negctrl_site404]	7.86 ± 0.49
TTATGTTGTAAATGCACACATACATAAACTCAGTTT [CACACA_site5639]	8.78 ± 0.057
ATTTAGAAAAATAAAACACACATATAGATGTAAATA [CACACA_site7853]	8.57 ± 0.58
ATATTTCTGTCAAGCACACATAATATTAAAATATGT [CACACA_site4330]	8.48 ± 0.36
ATGTTTGTCTATAGCTGTACCTATTTATAAAACGTA [XGTACX_site7157]	8.8 ± 0.33
TCATATTATAATGTGAGTACATATAATAAATAAGTT [XGTACX_site2470]	8.51 ± 0.35
TTAATATGATATATATATATATATATATATATATAT [CACACA_negctrl_site683]	10 ± 0.47
GTAAAAATTTTAAATACATGCAAGCGATTAATATGA [TGCATGCA_site80]	9.15 ± 0.22
CGTTAAAGGGAATGTATACACACGTTTCTCTATGTT [CACACA_site1198]	8.66 ± 0.47
GTATATATGTATATATGTACATATATACATTTTGTT [XGTACX_site7320]	8.81 ± 0.13
TTATAACAACTGGAATGATTAACAATAAATATTAAA [CACACA_negctrl_site1723]	8.41 ± 0.48
TATATATTTAACAATCGTACATATTTACAAATATAA [XGTACX_site2131]	8.29 ± 0.33
TTAAATAATATTAAATGTACATATTATTATGATATA [XGTACX_site6189]	8.16 ± 0.35
TATACATATATAAATGCATGTTGATATTAATAGTTA [TGCATGCA_site639]	8.62 ± 0.33

Sequence	gcPBM binding intensity (ln)
ACAGAAAAAAAACACACACACATAATATACATACAT [CACACA_site1932]	8.56 ± 0.44
AGGAGACTTAAAAAAAGTACAAAAAAAAAAAAAAGC [XGTACX_site1576]	8.64 ± 0.4
TATTTTTTTTTCTTTTTATATATAATAATCTTCATT [GTGCAC_negctrl_site80]	8.48 ± 0.59
TTATATGGCTCCATTTGTACGCATCCATGTTTTTAT [XGTACX_site6590]	9.16 ± 0.45
AACGAAAACACTACGTGTACCAAACGTCCTACTAAC [XGTACX_site4915]	8.49 ± 0.39
GTATATATTTTTATTTAATAATTTGTTTATTTATTC [CACACA_negctrl_site647]	8.56 ± 0.22
CATACATATACATACAGTACATATTTTTTGTCAATT [XGTACX_site7357]	8.56 ± 0.33
AGTTATTAAAAATGTGCATGCAATGGTTTCTCTTAA [TGCATGCA_site634]	9.99 ± 0.17
AAAAAAACATAACAAAATGAAACAAAACAAAAAGAA [GTGCAC_negctrl_site577]	8.93 ± 0.54
AAAAAAAAAAAAAAAGCACACATCATATTATAATTC [CACACA_site3355]	8.57 ± 0.12
TCTTTTTTTTCTTTTTTTTTATTTAAATATCAAGTA [CACACA_negctrl_site1354]	8.37 ± 0.4
AGGAGGTCAGTTCACAGTACCCAGAAACTCTACGAG [XGTACX_site2006]	8.29 ± 0.57
ATTTATAATGATTTTTTTAGTAATCTTGTTATTTTT [XGTACX_negctrl_site373]	8.32 ± 0.38
GTATGTATATATATATGTACATACTGTTTATCGTTA [XGTACX_site6168]	8.55 ± 0.28
AATATATAGAAACACACACACAAAAAAAAAAAAAAA [CACACA_site1326]	8.3 ± 0.54
AATAAAAAGACATTCACACATATATATTATTTATAT [CACACA_site5936]	8.51 ± 0.46
ATATAAAAAAAAAAAAGTACACATAAACAAATGCAT [XGTACX_site4241]	8.79 ± 0.52
AGATTATAAAATTCTACACACATATATACATATATA [CACACA_site3485]	8.29 ± 0.35
GACCAATTCAAATATGCACACAAATTTGAAAACGAT [CACACA_site9202]	8.61 ± 0.35
TTTTAATAAATATACACACACAAAAAAAAAAAAAAA [CACACA_site3971]	8.21 ± 0.59
TTTCACTTTTTCCAAAGTACATATATAAAAATTAAT [XGTACX_site6947]	8.51 ± 0.35
TTAAAATATAATATTCGTACTTATTCAAAAGAAAAA [XGTACX_site2122]	8.12 ± 0.44

Sequence	gcPBM binding intensity (ln)
ATATGTAGAAGTAATGCACACATATGTATATATATA [CACACA_site8796]	9.215 ± 0.035
TATATATATATATAATGTACATATATATAATATACA [XGTACX_site1552]	10.1 ± 0.27
ATTTCTACTAAAAATACACACGATGATACAACGAAG [CACACA_site1755]	9.05 ± 0.52
ATAATGTAAAAGTAAACACACACATATATATATACA [CACACA_site8793]	8.88 ± 0.48
GTCTTAAAAATTAAAACACACGTTCACTTTCATATT [CACACA_site5803]	8.82 ± 0.4
AATTAATAACAAAATAAACACACATATATAAATACA [CACACA_site8456]	8.83 ± 0.33
CTAATGATCATATATACACACACACTAATAAAAAAA [CACACA_site9329]	8.63 ± 0.52
TATATTTAGATATATACACACATTAGCATTTTCATA [CACACA_site6902]	8.24 ± 0.35
AAAGAATTTGCATATACACACAAAAAGATATATACA [CACACA_site6318]	8.64 ± 0.27
CATAATACAGATAACACACACAATTATACATAAAAT [CACACA_site5742]	8.77 ± 0.35
ATAGTATCTGGTAGCTGTACGAGTCGTAGAGAGTAG [XGTACX_site2546]	9.14 ± 0.37
TTATTATTTCTTAGTAGTACTATATAATTTTTTTTT [XGTACX_site1847]	8.48 ± 0.34
GGAAAATTATCAATAGCATGCAAAATGTGAATATTA [TGCATGCA_site901]	9.59 ± 0.59
ATATATCTGTATGGCACACACGGATAAATATATATA [CACACA_site4668]	8.7 ± 0.3
TATATTTGTACATGATATTTTTTTTTTCTTTTAAAA [CACACA_negctrl_site754]	8.46 ± 0.32
TGTATTTAGAAACATACACACATATTAAGTTTACAT [CACACA_site5689]	8.29 ± 0.41
GCCAAAATATAATTTACACACTTATTAAATAATTAT [CACACA_site236]	8.61 ± 0.14
AGAATAATACAAAAATGTACATTAATAAAAAGATAG [XGTACX_site780]	8.99 ± 0.42
TTTCCTCATTTTATCATACACACTTATTTATATGTG [CACACA_site900]	8.64 ± 0.42
ATTGAATATGGATATGTGCACATATGTATATAAGTA	9.2 ± 0.25
ATATATATACTGTGTACACACATATGTATTTATATA [CACACA_site4600]	8.71 ± 0.057
AAAACATTGTTGAACTGTTTTATTTATAAATATAAG [XGTACX_negctrl_site393]	8.23 ± 0.4
